# Laboratory results as given in PubChem BioAssay AID588855 (National Center for Advancing Translational Sciences (NCATS), 2011).
# About 5,000 (1.2%) of roughly 410,000 compounds were called active. Inconclusive means that the source gave no clear call. Such entries were picked first, then a sample of the others. The call rests on the fitted dose curve; in most records, active means well fitted inhibition curve with a large enough effect; inconclusive means small, poorly fitted or top-dose-only effect; inactive means no such curve, though single readings can be large or run the other way. Potencies beside an inconclusive call are fits to weak or partial responses and may not hold up.
# Experiment: qHTS for Inhibitors of TGF-b; further: nearly all actives have a fitted effect of over 65% in size
# Details: HepG2 CAGA-GFP TGF-b/SMAD3 reporter, GFP fluorescence, 18 h, TGF-beta stimulated, 500 pg/mL final; series mostly up to 46.1 µM; activity, negative = inhibition: at the top concentration
# In short: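 HEPG2 CAGA-GFP reporter cells (1000/well, DMEM with 1% FBS) received compounds, then recombinant TGF-beta at 500 pg/mL final for 18 hours at 37 degrees C. Per-cell GFP summed per well was normalised to unstimulated and stimulated DMSO controls before curve fitting.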
# On the % scale 0 is the no-effect control and ±100 the full control effect; potency means the concentration at half of the fitted maximal effect; tags describe the fitted curve by direction and shape.
SMILES,Potency,"activity, negative = inhibition"
CCOC(=O)c1c(NC(=O)CN(CC)CC)sc2c1CCN(C(=O)OCC)C2,"inconclusive: 35.5 µM [inhibitor, single point]",
C[C@@H]1Cn2cnc(C(=O)NCc3ccc(CNC(=O)OC(C)(C)C)cc3)c2C(=O)N1,,inactive: 7.65%
CC(C)Cn1c(N)c(C(=O)COC(=O)c2ccc(Br)cc2)c(=O)n(C)c1=O,,inactive: -25.5%
N#CC1=C(N)NC(SCC(=O)c2ccc(Cl)cc2)=C(C#N)C12CCCC2,"inconclusive: 3.55 µM [inhibitor, partial curve, poor fit]",
CC(C)(C)c1ccc(/C=C/C(=O)O)s1,,inactive: -3.27%
Cc1cc(OCC(=O)Nc2ccc(Br)cc2)cc2c1C(=O)CC(C)(C)O2,"inconclusive: 20 µM [inhibitor, partial curve, poor fit]",
C=CCOc1ccc(Br)cc1CNCCO,,inactive: -11%
CC(C)CCNC(=O)C1CCN(C(=O)N2CCOc3ccc(Cl)cc32)CC1,"inconclusive: 11.2 µM [inhibitor, partial curve]",
Cc1cc(C(F)(F)F)nn1CC(=O)Nc1ccc2c(c1)OCO2,,inactive: 19.9%
CC(C)(C)NC(=O)CSc1nc2scc(-c3ccccc3)c2c(=O)[nH]1,"inconclusive: 17.8 µM [inhibitor, single point]",
CCOc1ccc(NC(=O)C2CCN(S(=O)(=O)c3ccc4c(c3)NC(=O)C(C)S4)CC2)cc1 (configuration not stated),,inactive: -9.51%
CC(C)(C)c1nc(SCC(=O)NNC(=O)c2ccccc2)c2ccccc2n1,"inconclusive: 35.5 µM [inhibitor, single point]",
CCOC(=O)c1sc(N/N=C/c2ccccc2)nc1C,"inconclusive: 12.6 µM [inhibitor, partial curve, poor fit]",
Cc1ccc(CNC(=O)C(=O)NCC(c2ccco2)S(=O)(=O)c2cccs2)cc1 (configuration not stated),"inconclusive: 6.31 µM [inhibitor, single point]",
CC(=O)Nc1ccccc1NC(=O)C/C(C)=N/NC(=O)c1ccc([N+](=O)[O-])c(Cl)c1,,inactive: 13.9%
CCCNC(=O)C1(C)CCN(C(=O)COc2ccc(C(C)(C)C)cc2)C1 (configuration not stated),,inactive: 4.91%
O=C(NCCc1ccccc1)C(=O)NCC(c1cccnc1)N1CCN(c2ccccc2F)CC1 (configuration not stated),"inconclusive: 7.08 µM [inhibitor, partial curve, poor fit]",
CC(C)=CCC/C(C)=C/CNC(=O)C[C@H]1C[C@H](C(=O)N(C(C)C)C(C)C)[C@@]2(C)c3[nH]c4cc(-c5ccco5)ccc4c3CCN2C1=O,active: 12.6 µM,
COc1cc(C=C(c2nc3ccccc3s2)c2nc3ccccc3s2)ccc1O,"inconclusive: 35.5 µM [inhibitor, single point]",
O=C(NN=Cc1cccc([N+](=O)[O-])c1)c1cccc2ccccc12,"inconclusive: 35.5 µM [inhibitor, single point]",
[C-]#[N+][C@H](O[C@@H]1O[C@H](CO)[C@@H](O)[C@H](O)[C@H]1O)c1ccccc1,,inactive: 5.17%
O=C(C1CCC(Cn2c(=O)c3sccc3n(Cc3cccc(F)c3)c2=O)CC1)N1CCCCC1 (configuration not stated),"inconclusive: 15.8 µM [inhibitor, single point]",
CCC(c1nc2ccccc2[nH]1)N(Cc1cccnc1)C(=O)c1cc(-c2ccccc2)on1 (configuration not stated),"inconclusive: 7.94 µM [inhibitor, partial curve, poor fit]",

SMILES,Potency,"activity, negative = inhibition"
CCOC(=O)C(Cc1c[nH]c2ccccc12)NC(=O)COc1ccc(Cl)c(C)c1 (configuration not stated),"inconclusive: 22.4 µM [inhibitor, partial curve, poor fit]",
O=C(c1ccc(C(F)(F)F)cc1)C1CCCN(C(=O)CCc2ccncc2)C1 (configuration not stated),"inconclusive: 17.8 µM [inhibitor, partial curve, poor fit]",
CCN1C(=O)N[C@H](c2ccccc2)C(C(C)=O)=C1C,,inactive: -4.18%
COc1ccc(C(c2c(O)ccc3ccccc23)N2CCOCC2)c(OC)c1 (configuration not stated),active: 6.31 µM,
COc1ccc(CC(=O)NCC2CCCN(Cc3cc(OC)cc(OC)c3)C2)cc1 (configuration not stated),,inactive: -1.9%
CN(Cc1ccccc1)C(=O)c1ccco1,,inactive: -0.544%
CC(Oc1ccc(Cl)cc1Cl)c1nc(-c2ccc(NC(=O)c3cccnc3)cc2)no1 (configuration not stated),"inconclusive: 6.31 µM [inhibitor, single point]",
Cc1nc(N2CCN(c3ccccc3)CC2)nc2c1C(=O)CCC2,"inconclusive: 22.4 µM [inhibitor, single point]",
O=C(Nc1ccc(N2CCCCC2)cc1)c1cncc(Br)c1,,inactive: -7.85%
CCCC(=O)n1nc(-c2ccc(OC)cc2)nc1N,,inactive: 16.8%
Cc1ccn2c(Cc3ccccc3)c(-c3ccc(Br)cc3)nc2c1,,inactive: 8.96%
COc1cc(S(=O)(=O)Nc2cc(C)cc(C)c2)ccc1F,"inconclusive: 35.5 µM [inhibitor, single point]",
O=C(CCN1CCN(c2ccccc2F)CC1)Nc1ccc(F)cc1,,inactive: 4.42%
CCc1ccc(Sc2cc(C(=O)NC(C)CC)c3ccccc3n2)cc1 (configuration not stated),,inactive: -18.3%
Cc1ccccc1OCC(O)CN(Cc1ccccc1O)C1CCCCC1 (configuration not stated),"inconclusive: 25.1 µM [inhibitor, single point]",
CCCNc1nc(Nc2ccc(C)c(Cl)c2)c2cnn(C)c2n1,"inconclusive: 11.2 µM [inhibitor, partial curve]",
Cc1ccc(CSc2nc(-c3ccccc3)c(C#N)c(=O)[nH]2)cc1,"inconclusive: 35.5 µM [inhibitor, single point]",
COc1cccc(NC(=O)c2cnn(-c3ccccc3)c2-n2cccc2)c1,"inconclusive: 12.6 µM [inhibitor, single point]",
Cc1ccc(NC(=S)Nn2cnnc2)cc1,,inactive: 9.24%
Brc1cccc(-c2nc3ccc(Br)cn3c2Cc2ccsc2)c1,active: 11.2 µM,
COc1ccccc1-n1c(/C=C/c2c(C)n(C)c3ccccc23)nc2ccccc2c1=O,"inconclusive: 6.31 µM [inhibitor, full curve]",
COC(=O)c1c(CCl)noc1C(=O)NC(C)C,"inconclusive: 0.398 µM [inhibitor, full curve, poor fit]",
Cc1cccc(CCN2CCN=C2Nc2ccccc2)c1,"inconclusive: 35.5 µM [inhibitor, single point]",

SMILES,Potency,"activity, negative = inhibition"
Cc1ccc(S(=O)(=O)N2CCN(c3ccc(C(F)(F)F)cc3[N+](=O)[O-])CC2)cc1,"inconclusive: 3.16 µM [inhibitor, full curve, poor fit]",
CCN(CC)C(=O)CSc1nc(COc2ccccc2)nc2ccccc12,"inconclusive: 35.5 µM [inhibitor, single point]",
Cc1noc(C)c1S(=O)(=O)N1CCC(C(=O)N2CCN(c3ccc(Cl)cc3)CC2)CC1,,inactive: 1.04%
O=C(CSc1nnnn1C1CCCC1)Nc1ccc(F)cc1,"inconclusive: 35.5 µM [inhibitor, single point]",
Cc1ccc(N(CC(=O)Nc2ccc(C)c(F)c2)S(=O)(=O)c2c(C)n[nH]c2C)cc1,"inconclusive: 35.5 µM [inhibitor, single point]",
Cc1ccc2c(Cl)cc(Cl)c(OCC(=O)NCCc3ccccn3)c2n1,"inconclusive: 12.6 µM [inhibitor, partial curve, poor fit]",
COC(=O)C1=C(N)Oc2cc(C)n(Cc3cccnc3)c(=O)c2C1c1cccc(OC)c1OC (configuration not stated),"inconclusive: 20 µM [inhibitor, single point]",
COc1ccc(C)cc1NC(=O)Cn1c(=O)ccc2cc(S(=O)(=O)N3CCCC3)ccc21,"inconclusive: 35.5 µM [inhibitor, partial curve, poor fit]",
CC(C)c1ccc(NC(=O)c2cc(S(=O)(=O)NCc3ccccc3Cl)ccc2F)cc1,"inconclusive: 35.5 µM [inhibitor, single point]",
Cc1ccc(NC(=S)N2CCN(S(C)(=O)=O)CC2)cc1Cl,,inactive: -28.1%
CN(C)CCCN1C(=O)c2cccc3c(Br)ccc(c23)C1=O,"inconclusive: 35.5 µM [inhibitor, single point]",
CCC1CCCCN1C(=O)Cn1c(=O)n(CCC(=O)NCc2ccco2)c(=O)c2sccc21 (configuration not stated),"inconclusive: 14.1 µM [inhibitor, single point]",
O=C(/C=C/c1ccccc1Cl)NC(=S)Nc1ccccc1C(=O)NC1CCCCC1,"inconclusive: 3.16 µM [inhibitor, full curve, poor fit]",
O=C(c1ccco1)N1N=C(C2CCCCC2)CC1(O)C(F)(F)F (configuration not stated),"inconclusive: 35.5 µM [inhibitor, single point]",
COc1ccc(S(=O)(=O)N(C)C[C@H]2Oc3ccc(NS(=O)(=O)c4ccc(F)cc4)cc3C(=O)N([C@H](C)CO)C[C@@H]2C)cc1,"inconclusive: 22.4 µM [inhibitor, single point]",
Cc1ccc(S(=O)(=O)c2nc(-c3ccco3)oc2SCC(C)C)cc1,"inconclusive: 7.08 µM [inhibitor, partial curve, poor fit]",
CC(C)CC1C(=O)N(Cc2cn(Cc3ccco3)nn2)CCS(=O)(=O)N1Cc1ccc(-c2ccc(F)cc2)cc1 (configuration not stated),"inconclusive: 11.2 µM [inhibitor, partial curve]",
COc1ccc2nc3sc(C(=O)NCCCN4CCc5ccccc5C4)cc3cc2c1,"inconclusive: 25.1 µM [inhibitor, single point]",
C=C(C)C(=O)Nc1cccc(C2=NOC3(C2)C[C@H](C(N)=O)N(C(=O)COc2ccc(Cl)cc2)C3)c1 (some centres not stated),,inactive: -11.7%
COc1ccc(OC)c(C2C(C(=O)c3cccs3)=C(O)C(=O)N2CCN2CCOCC2)c1 (configuration not stated),,inactive: -2.05%
CC(C)(C)c1ccc(C(=O)Nc2cccc([N+](=O)[O-])c2)cc1,"inconclusive: 25.1 µM [inhibitor, single point]",
